Measurements reported in PubChem BioAssay AID1956 (SRMLSC, 2009).
This is one part of the list. Shown are side measurements of this screen, not its main read-out; they come without a call.

test: compounds boosting herpes simplex virus growth – fold increase, host cell viability (AID 1956); details: HSV replication augmentation in cells; fold increase: measured here: primary screen fold increase 10 uM, at 10 µM, stronger effect = higher value; viability: measured here: host cell viability series, at 25 µM, stronger effect = lower value; note: tested in PC3 cells

SMILES | fold increase | viability [%]
COc1ccccc1N1C(=O)C2C(C(=O)c3ccccc3)=NN(c3ccc(Br)cc3)C2C1=O (stereo unspecified) | 1.74 | 98.9
O=C(NC(=S)NCc1ccco1)c1ccccc1 | 1.43 | –
Nc1c(C(=O)Nc2ccccc2F)sc2nc(Cc3ccccc3)cc(C(F)(F)F)c12 | 2.44 | 104
O=C(Nc1ccc2c(c1)OCCO2)c1coc2ccccc2c1=O | 1.34 | 86
CC(C)OC(=O)C(C(=O)C(F)(F)F)c1cc(NS(=O)(=O)c2ccc3ccccc3c2)c2ccccc2c1O (stereo unspecified) | 1.68 | –
COC(=O)c1sc2cc([N+](=O)[O-])cc(SCC(C)C)c2c1N | 3.77 | –
O=C(NC1=NCCS1)c1ccccc1OCc1ccccc1Cl | 1.37 | 91.1
Cc1cccc(NC(=O)/C=C/c2ccc([N+](=O)[O-])s2)c1 | 1.85 | 7.57
CCCCC(=O)Nc1ccc(C(=O)NNC(=O)c2ccccc2Br)cc1 | 1.32 | 98.5
O=C(Nc1cccn(Cc2cccc(F)c2)c1=O)NC1CCCCC1 | 1.34 | 91.3
C/C(=N\NC(N)=O)c1ccccc1 | 1.38 | 93.1
O=C1NC(=S)N(C(=O)c2ccc(F)cc2)/C1=C/c1ccccc1 | 1.75 | 90.3
CCn1c(=O)cc(SCC(=O)NCc2ccccn2)c2ccccc21 | 1.51 | 98.2
CCCCSc1cc(C)nc(N)n1 | 1.38 | 94
O=C(Nc1ccccc1)c1ccc(NCCc2ccccc2)c([N+](=O)[O-])c1 | 1.68 | 83.9
Nc1c(S(=O)(=O)c2ccccc2)c2nc3ccccc3nc2n1Cc1ccco1 | 2.28 | 88.3
C=CCn1c(C)c(C(C)=O)c(N2CCN(c3ccccc3)CC2)nc1=S | 2.27 | 97.6
O=C(OCCN1C(=O)c2cccc3c(N4CCOCC4)ccc(c23)C1=O)c1cc(Cl)cc(Cl)c1 | 3.44 | –
CCN(CC)C(=O)CSC(Nc1ccc(F)cc1)=C(C#N)C#N | 3.22 | 87.3
CN1CCc2c(sc3c2C(=O)NC(c2ccc(-c4ccc(Cl)cc4)o2)N3)C1 (stereo unspecified) | 2.87 | 98.1
COc1ccc2c(Cl)c(C(=O)N/N=C3\CCCC(=O)C3)sc2c1 | 3.03 | 99.7
O=c1c(O)c(-c2ccc3c(c2)OCO3)oc2ccccc12 | 1.48 | 94.4
Cn1c(=O)c2[nH]c(-c3ccccc3)c(O)c2n(C)c1=O | 1.44 | –
C=CCn1c(C(CCC(C)C)CC(C)(C)O)n[nH]c1=S (stereo unspecified) | 1.37 | 98.3
COC(=O)C1=C(C(=O)OC)SC2(S1)C(C(=O)OC)=C(C(=O)OC)SC1=C2c2cc(C)ccc2NC1(C)C | 1.18 | –
CC(=O)c1ccc(N2Cc3ccccc3/C2=N\C(=O)Nc2ccccc2)cc1 | 1.38 | 90.1
